Here are results for 60 molecules from the supplement of paper PMC9446081.

SMILES strings stand for the structures. Hit rate of the full screen: of about 39,000 compounds, about 220 (0.56%) showed activity. The list shows a part of the results.
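Note: static incubation at 37 °C against the wild-type strain, values averaged over two biological replicates.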

This assay concerns Escherichia coli K-12 BW25113. Put plainly: relative growth (OD600 normalised to plate interquartile mean) (fraction); higher = less growth inhibition, active = 0.2 or less. Conditions: 50 µM; LB; incubation time: overnight (16-24 h).
As for `C[C@H]1CN([C@@H](C)CO)C(=O)Cc2cc(NC(=O)Nc3cc(Cl)cc(Cl)c3)ccc2O[C@H]1CN(C)S(=O)(=O)c1ccc(Oc2ccccc2)cc1`, the relative growth is inactive: 1.02.
For `C[C@@H]1CCCCO[C@@H](CN(C)Cc2ccc(C(=O)O)cc2)[C@@H](C)CN([C@@H](C)CO)C(=O)c2cc(NS(=O)(=O)c3cccs3)ccc2O1`, the relative growth is inactive: 1.01.
Then `Cc1ccc(S(=O)(=O)Nc2ccc3c(c2)C(=O)N([C@@H](C)CO)C[C@@H](C)[C@H](CN(C)C(=O)C2CCCCC2)OCCCC[C@@H](C)O3)cc1`, with inactive: 0.979; and `O=C(N[C@@H](c1ccc(-c2ccccc2)cc1)c1cnccn1)C1CCN(Cc2ccc(Oc3ccccc3)cc2)CC1`, with inactive: 1.03.
As to `C[C@@H]1CN([C@H](C)CO)C(=O)c2cccc(NC(=O)Nc3cccc4ccccc34)c2O[C@@H]1CN(C)Cc1ccc(-c2ccccc2)cc1`, the relative growth was inactive: 1.02.
Then `CCCN(C)C[C@H]1OCCCC[C@@H](C)Oc2ccc(NC(=O)C3CCCCC3)cc2C(=O)N([C@H](C)CO)C[C@@H]1C`, with inactive: 1.01; and `Cc1ccc(S(=O)(=O)Nc2ccc3c(c2)C(=O)N([C@@H](C)CO)C[C@H](C)[C@H](CN(C)Cc2ccc(-c4ccccc4)cc2)O3)cc1`, with inactive: 1.03; and `C[C@@H]1CN([C@@H](C)CO)C(=O)Cc2cc(NC(=O)CCN3CCOCC3)ccc2O[C@@H]1CN(C)Cc1ccc(C(=O)O)cc1`, with inactive: 1.
Then `C[C@@H]1CCCCO[C@H](CN(C)C(=O)NC2CCCCC2)[C@@H](C)CN([C@H](C)CO)C(=O)c2cc(NC(=O)Cc3ccccc3)ccc2O1`, with inactive: 1.
With `C[C@H]1CN([C@@H](C)CO)S(=O)(=O)c2ccc(C#CCN(C)C)cc2O[C@H]1CN(C)Cc1ccccc1F` the figure was inactive: 1; with `Cc1noc(C)c1S(=O)(=O)Nc1ccc2c(c1)CC(=O)N([C@@H](C)CO)C[C@H](C)[C@H](CN(C)Cc1ccc(Oc3ccccc3)cc1)O2`, inactive: 1.01.
`COc1ccc(S(=O)(=O)N(C)C[C@H]2Oc3c(NS(=O)(=O)c4ccc(F)cc4)cccc3C(=O)N([C@H](C)CO)C[C@H]2C)cc1`: the relative growth is inactive: 1.01.
As for `C[C@H]1CN([C@@H](C)CO)S(=O)(=O)c2ccc(C3=CCCC3)cc2O[C@@H]1CN(C)C(=O)Cc1ccncc1`, the relative growth is inactive: 0.98.
With `COc1ccc(NC(=O)Nc2ccc3c(c2)C(=O)N([C@H](C)CO)C[C@@H](C)[C@@H](CN(C)S(=O)(=O)c2cccs2)OCCCC[C@H](C)O3)cc1` the figure was inactive: 1.06; with `C[C@@H]1CN([C@H](C)CO)C(=O)Cc2cc(NC(=O)Nc3cccc4ccccc34)ccc2O[C@@H]1CN(C)C(=O)Nc1ccccc1`, inactive: 1.03; with `C[C@H]1CN([C@@H](C)CO)C(=O)c2c(c3ccccc3n2C)-c2ccccc2CO[C@@H]1CN(C)Cc1cccc(C(=O)O)c1`, inactive: 1.
With `COc1ccc(S(=O)(=O)N(C)C[C@H]2Oc3ccc(N(C)C)cc3CC(=O)N([C@H](C)CO)C[C@H]2C)cc1` the figure was inactive: 1.02; with `CCCN(C)C[C@H]1OCCCC[C@@H](C)Oc2ccc(NC(=O)Nc3ccc4c(c3)OCO4)cc2C(=O)N([C@H](C)CO)C[C@@H]1C`, inactive: 1.01.
For the molecule `CCOC(=O)[C@H](N)/C=C(\C)CP(=O)(O)O`, the relative growth is inactive: 0.989.
On to `CC(C)(C)[S@](=O)N1Cc2cc(C(=O)N3CCc4ccccc4C3)nc(-c3cccc(-c4ccncc4)c3)c2[C@@H]1CCO`, for which the relative growth is inactive: 1.02.
With `C[C@@H]1CN([C@H](C)CO)C(=O)c2cccc(NS(=O)(=O)c3ccc(F)cc3)c2O[C@H]1CN(C)S(=O)(=O)c1cn(C)cn1` the figure was inactive: 0.991.
`O=C(Nc1ccc(C(F)(F)F)cc1)Nc1ccc2c(c1)[C@@H]1C[C@H](CC(=O)N3CCc4ccccc4C3)O[C@@H](CO)[C@@H]1O2`: the relative growth is inactive: 0.973.
Then `O=C1Nc2ccc(I)cc2C1=Cc1cc(Br)c(O)c(Br)c1`, with inactive: 1.12; and `COc1ccc(S(=O)(=O)N(C)C[C@H]2OCCCC[C@@H](C)Oc3ccc(NC(=O)Nc4ccc(C(F)(F)F)cc4)cc3C(=O)N([C@@H](C)CO)C[C@H]2C)cc1`, with inactive: 1.03.
With `C[C@H](CO)N1C[C@H](C)[C@H](CN(C)S(=O)(=O)c2cccs2)Oc2ncc(-c3cccc(F)c3)cc2C1=O` the figure was inactive: 0.97; with `C[C@H]1CN([C@@H](C)CO)C(=O)c2cccc(NS(=O)(=O)c3ccccc3)c2O[C@@H]1CN(C)S(=O)(=O)c1cccs1`, inactive: 0.965.
With `CO[C@H]1CN(C)C(=O)c2ccc(NC(=O)c3ccccc3)cc2OC[C@H](C)N(C(=O)CN(C)C)C[C@@H]1C` the figure was inactive: 1.02; with `C[C@@H]1CN([C@@H](C)CO)C(=O)c2cccc(NC(=O)Nc3ccc(C(F)(F)F)cc3)c2O[C@@H]1CN(C)C(=O)Nc1ccc(F)cc1`, inactive: 0.972; with `COCC(=O)N(C)C[C@H]1Oc2cc(C#Cc3ccccc3)ccc2S(=O)(=O)N([C@@H](C)CO)C[C@@H]1C`, inactive: 1.02.
Turning to `COc1ccc2c3c([nH]c2c1)[C@@H](CO)N(C[C@]13CCN(CC1)CC1CCOCC1)S(=O)(=O)c1cn(cn1)C`, the relative growth was inactive: 0.986.
Then `C[C@H](CO)N1C[C@H](C)[C@@H](CN(C)Cc2ccc(C(=O)Nc3ccccc3N)cc2)Oc2c(NC(=O)c3ccc(-c4nccs4)cc3)cccc2C1=O`, with inactive: 0.994.
With `COc1ccc(NC(=O)N2C[C@@H](O)COC[C@@H]3O[C@@H](CC(=O)NC4Cc5ccccc5C4)CC[C@H]32)cc1` the figure was inactive: 1.01; with `C[C@H](CO)N1C[C@H](C)[C@H](CN(C)S(=O)(=O)c2ccccc2)Oc2ncc(-c3ccc(F)cc3)cc2C1=O`, inactive: 0.98.
Then `CN(C)c1ccsc1C(=O)NN`, with inactive: 1.02.
Take `C[C@@H]1CN([C@H](C)CO)C(=O)c2cc(NC(=O)Cc3cn(C)c4ccccc34)ccc2O[C@H]1CN(C)Cc1ccc(C(=O)Nc2ccccc2N)cc1`: the relative growth is inactive: 0.977.
With `C[C@@H]1CN([C@H](C)CO)C(=O)c2cc(NS(=O)(=O)c3ccc(Cl)cc3)ccc2O[C@@H](C)CCCCO[C@@H]1CN(C)Cc1ccc(Cl)c(Cl)c1` the figure was inactive: 1.03.
For `C[C@@H]1CN([C@H](C)CO)C(=O)c2cccc(NC(=O)c3ccc(-c4nccs4)cc3)c2O[C@H]1CN(C)CC1CCCCC1`, the relative growth is inactive: 1.03.
With `C[C@H](CO)N1C[C@H](C)[C@H](CN(C)C(=O)Nc2cccc3ccccc23)Oc2ccc(NC(=O)C3CCCCC3)cc2C1=O` the figure was inactive: 0.999.
Then `COc1cc(CNC(=O)CCCCC=CC(C)C)ccc1O`, with inactive: 0.97; and `COc1ccccc1C#Cc1cnc2c(c1)C(=O)N([C@H](C)CO)C[C@H](C)[C@@H](CN(C)S(=O)(=O)c1cn(C)cn1)O2`, with inactive: 0.976.
Consider `C[C@@H]1CN([C@H](C)CO)C(=O)Cc2cc(NC(=O)Cn3cnnn3)ccc2O[C@H]1CN(C)C(=O)Nc1cccc2ccccc12`, for which the relative growth is inactive: 0.884.
With `Cc1noc(C)c1NC(=O)Nc1ccc2c(c1)C(=O)N([C@@H](C)CO)C[C@H](C)[C@@H](CN(C)Cc1ccc(C(F)(F)F)cc1)O2` the figure was inactive: 0.991; with `C[C@H]1CN([C@@H](C)CO)C(=O)c2cccc(NC(=O)c3nc4ccccc4s3)c2O[C@@H]1CN(C)Cc1ccc(Oc2ccccc2)cc1`, inactive: 1.01; with `C=C1[N-]O[N+](O)=C1CN(Cc1c(C)no[n+]1[O-])OC(C)=O`, inactive: 1.01.
With `CSc1nc(=O)c(CCO)c(C)[nH]1` the figure was inactive: 1.02; with `CC(C)NC(=O)N(C)C[C@@H]1Oc2ccc(NS(=O)(=O)c3cn(C)cn3)cc2C(=O)N([C@H](C)CO)C[C@H]1C`, inactive: 0.996.
With `C[C@@H]1CN([C@@H](C)CO)C(=O)c2cccc(NC(=O)c3ccc(-c4nccs4)cc3)c2O[C@@H]1CN(C)C(=O)Nc1ccc(C(F)(F)F)cc1` the figure was inactive: 0.99.
Turning to `COc1ccc([C@H](O)[C@H](CCO)OC)cc1O`, the relative growth was inactive: 0.989.
For the molecule `CN(CCO)S(=O)(=O)c1ccc2c(c1)C(=NO)c1cc(S(=O)(=O)N(C)CCO)ccc1-2`, the relative growth was inactive: 1.03.
With `COc1ccc(-c2ccc3c(c2)O[C@@H](CN(C)CC2CCOCC2)[C@@H](C)CN([C@@H](C)CO)S3(=O)=O)cc1` the figure was inactive: 0.991; with `COc1ccc([Si](C)(C)[C@H]2[C@H](CCO)O[C@@]3(C(=O)N(Cc4ccccc4)c4ccc(N5C(=O)c6cccc7cccc5c67)cc43)[C@@H]2C)cc1`, inactive: 1.04.
Regarding `COc1ccc(NC(=O)Nc2ccc3c(c2)[C@H]2C[C@@H](CC(=O)NCc4ccccn4)O[C@H](CO)[C@H]2O3)cc1`, the relative growth was inactive: 0.988.
With `C[C@H](CO)N1C[C@H](C)[C@H](CN(C)C(=O)Nc2ccc(C(F)(F)F)cc2)Oc2ccc(NS(=O)(=O)c3ccc(F)cc3)cc2C1=O` the figure was inactive: 0.994; with `Nc1ccc(CO)cn1`, inactive: 0.999.
Then `C[C@@H]1CCCCO[C@H](CN(C)S(=O)(=O)c2cccs2)[C@H](C)CN([C@H](C)CO)C(=O)c2cc(NS(=O)(=O)c3ccc(Cl)cc3)ccc2O1`, with inactive: 1.05.
In the case of `O=C(O)C=Cc1ccc(Cn2ccnc2)cc1`, the relative growth was inactive: 0.953.
`COc1ccc(S(=O)(=O)Nc2ccc3c(c2)C(=O)N([C@@H](C)CO)C[C@@H](C)[C@@H](CN(C)S(=O)(=O)c2ccccc2)O3)cc1`: the relative growth is inactive: 1.02.
As for `CCNC(=O)C[C@H]1C=C[C@@H](NC(=O)C2CCOCC2)[C@H](CO)O1`, the relative growth is inactive: 1.
Consider `O=C1c2ccccc2[C@@]2(Cc3ccccc3N(Cc3ccccc3)C2=O)[C@H](c2ccc(CO)cc2)N1Cc1ccccc1C(F)(F)F`, for which the relative growth was inactive: 1.04.
For `COc1ccccc1C#Cc1cnc2c(c1)C(=O)N([C@H](C)CO)C[C@@H](C)[C@@H](CN(C)S(=O)(=O)c1cn(C)cn1)O2`, the relative growth is inactive: 0.996.
